Source: the supplement of paper PMC9151546
Repeats are few or missing, and single values can be far off.

Tests used:
[1] = system: CHO-K1; assay: hypodiploid nuclei frequency (% of nucleated events); higher = more hypodiploid events (aneugenic)
[2] = system: CHO-K1; assay: relative survival (nuclei to bead ratio vs DMSO control) (% of vehicle control); higher = more surviving cells
[3] = system: CHO-K1; assay: micronucleus frequency (% of nucleated events); higher = more micronuclei (genotoxic)
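Wherever hypodiploid nuclei frequency (% of nucleated events) is given: hypodiploid nuclei gated on a flow cytometer with 488 nm excitation after SYTOX Green staining, cultures at 37 °C, positive controls vinblastine without S9 and cyclophosphamide with S9.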
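Wherever micronucleus frequency (% of nucleated events) is given: cells lysed with nuclei stained by SYTOX Green, then micronucleus-gated events counted against nucleated events by flow cytometry with 488 nm excitation.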
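Wherever relative survival (nuclei to bead ratio vs DMSO control) is given: Lysed-cell nuclei stained with SYTOX Green and counted against counting beads by flow cytometry at 488 nm excitation, with vinblastine (no S9) and cyclophosphamide (plus S9) as positive controls.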

CS(=O)(=O)OCCCCOS(C)(=O)=O [Busulfan]
Conditions	hypodiploid nuclei frequency, [1] [%]	micronucleus frequency, [3] [%]	relative survival, [2]
concentration: 4.5 (µM), S9 metabolic activation: with S9, exposure time: 3-4 hours	0.16	1.56	96.2
concentration: 4.5 (µM), S9 metabolic activation: without S9, exposure time: 24 hours	0.64	1.4	107
concentration: 5.63 (µM), S9 metabolic activation: with S9, exposure time: 3-4 hours	0.22	1.36	98.5
concentration: 5.63 (µM), S9 metabolic activation: without S9, exposure time: 24 hours	0.62	1.44	108
concentration: 7.04 (µM), S9 metabolic activation: with S9, exposure time: 3-4 hours	0.3	0.96	93
concentration: 7.04 (µM), S9 metabolic activation: without S9, exposure time: 24 hours	0.78	1.22	112
concentration: 8.8 (µM), S9 metabolic activation: with S9, exposure time: 3-4 hours	0.22	1.22	107
concentration: 8.8 (µM), S9 metabolic activation: without S9, exposure time: 24 hours	0.72	1.36	111
concentration: 11 (µM), S9 metabolic activation: with S9, exposure time: 3-4 hours	0.08	1.26	71.7
concentration: 11 (µM), S9 metabolic activation: without S9, exposure time: 24 hours	0.7	1.34	118
concentration: 13.7 (µM), S9 metabolic activation: with S9, exposure time: 3-4 hours	0.1	1.2	84.1
concentration: 13.7 (µM), S9 metabolic activation: without S9, exposure time: 24 hours	0.76	1.8	102
concentration: 17.2 (µM), S9 metabolic activation: with S9, exposure time: 3-4 hours	0.14	1.48	101
concentration: 17.2 (µM), S9 metabolic activation: without S9, exposure time: 24 hours	0.54	1.54	104
concentration: 21.5 (µM), S9 metabolic activation: with S9, exposure time: 3-4 hours	0.12	1.24	125
concentration: 21.5 (µM), S9 metabolic activation: without S9, exposure time: 24 hours	0.48	1.42	113
concentration: 26.8 (µM), S9 metabolic activation: with S9, exposure time: 3-4 hours	0.1	0.98	102
concentration: 26.8 (µM), S9 metabolic activation: without S9, exposure time: 24 hours	0.58	2.32	110
concentration: 33.6 (µM), S9 metabolic activation: with S9, exposure time: 3-4 hours	0.26	0.98	92.7
concentration: 33.6 (µM), S9 metabolic activation: without S9, exposure time: 24 hours	0.64	2.54	102
concentration: 41.9 (µM), S9 metabolic activation: with S9, exposure time: 3-4 hours	0.12	0.9	95.5
concentration: 41.9 (µM), S9 metabolic activation: without S9, exposure time: 24 hours	0.64	3	99.2
concentration: 52.4 (µM), S9 metabolic activation: with S9, exposure time: 3-4 hours	0.14	1.14	101
concentration: 52.4 (µM), S9 metabolic activation: without S9, exposure time: 24 hours	0.88	2.64	96
concentration: 65.5 (µM), S9 metabolic activation: with S9, exposure time: 3-4 hours	0.14	1.14	74.8
concentration: 65.5 (µM), S9 metabolic activation: without S9, exposure time: 24 hours	0.66	1.84	85.2
concentration: 81.9 (µM), S9 metabolic activation: with S9, exposure time: 3-4 hours	0.16	1.22	105
concentration: 81.9 (µM), S9 metabolic activation: without S9, exposure time: 24 hours	0.78	1.62	96.5
concentration: 102 (µM), S9 metabolic activation: with S9, exposure time: 3-4 hours	0.18	1	69.1
concentration: 102 (µM), S9 metabolic activation: without S9, exposure time: 24 hours	0.52	2.2	94.2
concentration: 128 (µM), S9 metabolic activation: with S9, exposure time: 3-4 hours	0.24	0.94	92.1
concentration: 128 (µM), S9 metabolic activation: without S9, exposure time: 24 hours	0.76	2.04	91.7
concentration: 160 (µM), S9 metabolic activation: with S9, exposure time: 3-4 hours	0.26	1.06	72.6
concentration: 160 (µM), S9 metabolic activation: without S9, exposure time: 24 hours	0.94	2.56	105
concentration: 200 (µM), S9 metabolic activation: with S9, exposure time: 3-4 hours	0.16	0.96	77.4
concentration: 200 (µM), S9 metabolic activation: without S9, exposure time: 24 hours	0.84	2.2	103

Clc1cccc(Cl)c1Cl [1,2,3-Trichlorobenzene]
Conditions	hypodiploid nuclei frequency, [1] [%]	micronucleus frequency, [3] [%]	relative survival, [2]
concentration: 4.5 (µM), S9 metabolic activation: with S9, exposure time: 3-4 hours	0.28	1.44	109
concentration: 4.5 (µM), S9 metabolic activation: without S9, exposure time: 24 hours	0.48	1.66	120
concentration: 5.63 (µM), S9 metabolic activation: with S9, exposure time: 3-4 hours	0.3	1.32	109
concentration: 5.63 (µM), S9 metabolic activation: without S9, exposure time: 24 hours	0.3	1.76	109
concentration: 7.04 (µM), S9 metabolic activation: with S9, exposure time: 3-4 hours	0.2	1.82	128
concentration: 7.04 (µM), S9 metabolic activation: without S9, exposure time: 24 hours	0.4	1.44	118
concentration: 8.8 (µM), S9 metabolic activation: with S9, exposure time: 3-4 hours	0.18	1.64	112
concentration: 8.8 (µM), S9 metabolic activation: without S9, exposure time: 24 hours	0.6	1.64	109
concentration: 11 (µM), S9 metabolic activation: with S9, exposure time: 3-4 hours	0.36	1.78	101
concentration: 11 (µM), S9 metabolic activation: without S9, exposure time: 24 hours	0.52	2	106
concentration: 13.7 (µM), S9 metabolic activation: with S9, exposure time: 3-4 hours	0.3	1.82	97.6
concentration: 13.7 (µM), S9 metabolic activation: without S9, exposure time: 24 hours	0.46	1.46	114
concentration: 17.2 (µM), S9 metabolic activation: with S9, exposure time: 3-4 hours	0.32	1.56	113
concentration: 17.2 (µM), S9 metabolic activation: without S9, exposure time: 24 hours	0.68	1.3	105
concentration: 21.5 (µM), S9 metabolic activation: with S9, exposure time: 3-4 hours	0.22	1.32	109
concentration: 21.5 (µM), S9 metabolic activation: without S9, exposure time: 24 hours	0.66	1.3	144
concentration: 26.8 (µM), S9 metabolic activation: with S9, exposure time: 3-4 hours	0.38	1.94	114
concentration: 26.8 (µM), S9 metabolic activation: without S9, exposure time: 24 hours	0.56	1.58	84.4
concentration: 33.6 (µM), S9 metabolic activation: with S9, exposure time: 3-4 hours	0.42	1.96	110
concentration: 33.6 (µM), S9 metabolic activation: without S9, exposure time: 24 hours	0.72	1.68	136
concentration: 41.9 (µM), S9 metabolic activation: with S9, exposure time: 3-4 hours	0.52	1.66	111
concentration: 41.9 (µM), S9 metabolic activation: without S9, exposure time: 24 hours	0.58	1.26	117
concentration: 52.4 (µM), S9 metabolic activation: with S9, exposure time: 3-4 hours	0.38	1.76	116
concentration: 52.4 (µM), S9 metabolic activation: without S9, exposure time: 24 hours	0.82	1.7	107
concentration: 65.5 (µM), S9 metabolic activation: with S9, exposure time: 3-4 hours	0.32	1.82	141
concentration: 65.5 (µM), S9 metabolic activation: without S9, exposure time: 24 hours	0.9	1.64	106
concentration: 81.9 (µM), S9 metabolic activation: with S9, exposure time: 3-4 hours	0.24	1.68	112
concentration: 81.9 (µM), S9 metabolic activation: without S9, exposure time: 24 hours	0.86	1.76	92.8
concentration: 102 (µM), S9 metabolic activation: with S9, exposure time: 3-4 hours	0.32	1.68	116
concentration: 102 (µM), S9 metabolic activation: without S9, exposure time: 24 hours	0.78	1.54	95.9
concentration: 128 (µM), S9 metabolic activation: with S9, exposure time: 3-4 hours	0.2	2.1	123
concentration: 128 (µM), S9 metabolic activation: without S9, exposure time: 24 hours	1.16	2.6	113
concentration: 160 (µM), S9 metabolic activation: with S9, exposure time: 3-4 hours	0.28	1.6	118
concentration: 160 (µM), S9 metabolic activation: without S9, exposure time: 24 hours	1.08	2.2	90.6
concentration: 200 (µM), S9 metabolic activation: with S9, exposure time: 3-4 hours	0.28	1.94	129
concentration: 200 (µM), S9 metabolic activation: without S9, exposure time: 24 hours	1.38	2.46	86.7
